Measured values from PubChem BioAssay AID360 (National Center for Advancing Translational Sciences (NCATS), 2006).
About 550 (1.1%) of roughly 48,000 compounds were called active. About 4% were inconclusive and are not listed. Rule as the data show it: active = potency below about 15 µM; inconclusive = mostly about 16 µM to 33 µM; inactive = weaker than that. Some of the results follow.

Each molecule was assayed against Lysosomal acid glucosylceramidase (Homo sapiens) (UniProt P04062) (assay: Glucocerebrosidase). Conditions: purified enzyme, resorufin glucoside fluorescence (screen aimed at inhibitors), 20 min.
Outline: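 Compounds titrated against 0.2 nM normal enzyme, 30 uM resorufin beta-D-glucopyranoside substrate, citrate/phosphate buffer with taurocholate and tween-20, pH 5.9. Reaction ran 20 min at room temperature; fluorescence (Ex 548/Em 600) gave AC50.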
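Also: the screen sought inhibitors.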
Potency is read from the fitted curve at half-maximal effect.

Chain of UniProt P04062 (P04062 whole entry, looked up): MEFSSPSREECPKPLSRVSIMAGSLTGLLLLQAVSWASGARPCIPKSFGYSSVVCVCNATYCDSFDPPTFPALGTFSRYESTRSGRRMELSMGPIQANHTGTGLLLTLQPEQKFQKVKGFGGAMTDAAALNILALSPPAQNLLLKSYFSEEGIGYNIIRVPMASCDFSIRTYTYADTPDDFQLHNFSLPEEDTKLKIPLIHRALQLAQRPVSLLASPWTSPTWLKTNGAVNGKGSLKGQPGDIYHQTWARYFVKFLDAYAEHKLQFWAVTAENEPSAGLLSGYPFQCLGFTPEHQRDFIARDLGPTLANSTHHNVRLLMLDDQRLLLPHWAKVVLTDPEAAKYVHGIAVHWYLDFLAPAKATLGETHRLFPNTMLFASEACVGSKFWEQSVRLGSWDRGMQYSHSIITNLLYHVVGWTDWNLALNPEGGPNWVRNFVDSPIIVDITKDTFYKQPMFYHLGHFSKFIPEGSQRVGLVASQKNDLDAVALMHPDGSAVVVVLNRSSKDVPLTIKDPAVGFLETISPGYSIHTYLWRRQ

Compound	Potency
O=C(CCNS(=O)(=O)c1ccc(Br)cc1)NCc1ccc2c(c1)OCO2	inactive: > 76.9 µM
COc1cc(C(=O)Nc2oc(-c3ccccc3)c(-c3ccccc3)c2C#N)cc(OC)c1OC	inactive: > 76.9 µM
O=C1Nc2ccccc2C12OCC(COc1ccc(Cl)cc1)O2 (configuration not stated)	inactive: > 76.9 µM
COc1ccc(CNC(=O)CSc2ncnc3nc[nH]c23)cc1	inactive
N#CC(C(=O)NCc1ccco1)c1nc2ccccc2nc1N1CCOCC1 (configuration not stated)	inactive: > 76.9 µM
Cc1oc2ncnc(N)c2c1C	inactive: > 76.9 µM
Cc1cc(C(=O)Nc2sc(C)c(-c3ccc(F)cc3)c2C(N)=O)no1	inactive: > 76.9 µM
Cc1cc(C)n(Cc2ccc(C(=O)NCc3ccco3)o2)n1	inactive: > 76.9 µM
CCC(C)[C@H](NC(=O)NCC1CCCO1)C(=O)OC (some centres not stated)	inactive: > 76.9 µM
O=C(c1c[nH]c2ccc(S(=O)(=O)N3CCOCC3)cc2c1=O)N1CCN(c2ccccn2)CC1	inactive: > 76.9 µM
CCCCCOc1ccc(OC(=O)c2ccncc2)cc1	inactive: > 76.9 µM
O=C(Cn1nnc(-c2ccccc2)n1)NCc1ccc2c(c1)OCO2	inactive: > 76.9 µM
Nc1nonc1-c1nc2ccccc2[nH]1	inactive: > 76.9 µM
CCOC(=O)c1cnc(Nc2nc3ccccc3o2)nc1CSc1ncccn1	inactive: > 76.9 µM
COc1ccccc1CN1CCCC(C(=O)N(C)Cc2ccccc2)C1 (configuration not stated)	inactive: > 76.9 µM
O=C(CSc1nnnn1-c1ccc(Cl)cc1)NC(=O)Nc1ccc2c(c1)OCCO2	inactive: > 76.9 µM
CCC1CCCCN1S(=O)(=O)c1ccc2c(c1)CCN2C(=O)C1CCC1 (configuration not stated)	inactive: > 76.9 µM
O=C(Cn1ccc2ccccc2c1=O)N1CCN(Cc2ccc3c(c2)OCO3)CC1	inactive: > 76.9 µM
O=C1CC(c2ccco2)Cc2nc(Nc3ccc(F)cc3)ncc21 (configuration not stated)	inactive: > 76.9 µM
O=C(CCNS(=O)(=O)c1ccc(Br)s1)N1CCCCC1	inactive: > 76.9 µM
Cn1c(=O)c2c(nc(NCCO)n2C)n(C)c1=O	inactive: > 76.9 µM
COC(=O)c1c(NC(=O)CC2NCCNC2=O)sc2c1CCCC2 (configuration not stated)	inactive: > 76.9 µM
Cc1ccc2c(c1)N(CCC(=O)NCCN1CCOCC1)C(=O)CO2	inactive: > 76.9 µM

Compound	Potency
CCCNC(=O)CN(C)C(=O)c1n[nH]c2ccccc12	inactive: > 76.9 µM
CCOC(=O)N1CCC(N(CCOC)C(=O)Nc2ccc(Cl)cc2)CC1	inactive: > 76.9 µM
CS(=O)(=O)NCc1nnc(SCC(=O)NC2CCCCC2)n1-c1ccc(F)cc1	inactive: > 76.9 µM
Cc1cc(Nc2ccccc2)n(-c2nc3ccccc3[nH]2)n1	inactive: > 76.9 µM
CS(=O)(=O)NCCOc1ccc(S(=O)(=O)N2CCCc3ccccc32)cc1	inactive: > 76.9 µM
Cc1csc2nc(CSc3nc4ccccc4o3)c(Br)n12	inactive: > 76.9 µM
COc1ccc(Cl)cc1NC(=O)CSc1nncn1-c1cccnc1	inactive: > 76.9 µM
CSc1ncc(Cl)c(C(=O)Nc2ccc(S(=O)(=O)N3CCOCC3)cc2)n1	inactive: > 76.9 µM
Cc1ccc(C)c(N2CCN(C(=O)c3ccc(CS(=O)(=O)c4ccccc4C)o3)CC2)c1	inactive
CCOC(=O)c1sc(C)c(C(N)=O)c1NC1=NCCCCC1	inactive
C=C(C)COc1ccc(-c2n[nH]c(C)c2Oc2ccccc2OC)c(O)c1	inactive: > 76.9 µM
CC1(C)OC(=O)C(=CNCC(O)c2ccccc2)C(=O)O1 (configuration not stated)	inactive: > 76.9 µM
CC(C)N=C(NC#N)SCC(=O)NC(C)(C)C	inactive: > 76.9 µM
O=c1oc(-c2ccco2)nc2c1cnn2-c1ccccc1	inactive: > 76.9 µM
COc1cccc(NC(=O)C2CC(=O)N(C)C(=Nc3cccc(F)c3)S2)c1 (configuration not stated)	inactive: > 76.9 µM
COC(=O)[C@H]1C2CCC(C(=O)OC)(CC2)[C@H]1C(=O)OC	inactive: > 76.9 µM
CCN(CC)Cc1nc2c(c(=O)[nH]1)C1(CCCCC1)Cc1ccccc1-2	inactive: > 76.9 µM
O=C(N/C(=N\O)c1ccccc1)Nc1ccc(Cl)cc1	inactive: > 76.9 µM
COc1ccc(C(=O)NCc2nnc(SCC(=O)N3CCCCC3)o2)cc1OC	inactive: > 76.9 µM
CCS(=O)(=O)N1CCC(C(=O)NCc2ccccc2OC)CC1	inactive: > 76.9 µM
CNC(=O)OC(C)CNS(=O)(=O)c1ccc(C)cc1 (configuration not stated)	inactive: > 76.9 µM
CCn1c(-c2cc(OC)c(OC)c(OC)c2)n[nH]c1=S	inactive: > 76.9 µM
O=C(Nc1ccc2oc(-c3ccncc3)nc2c1)c1c(F)c(F)c(F)c(F)c1F	inactive: > 76.9 µM

Compound	Potency
Cn1cccc1C(C(=O)NC1CCCCC1)N(C(=O)Cc1cccs1)C1CC1 (configuration not stated)	inactive: > 76.9 µM
COCCn1c(SCC(=O)N(C(C)C)C(C)C)nnc1-c1cc2ccccc2cc1O	inactive: > 76.9 µM
O=C(Nc1ccccc1-c1ccccc1)c1cnccn1	inactive: > 76.9 µM
CCc1ccccc1NC(=O)c1ccoc1C	inactive: > 76.9 µM
Cc1csc2ncc(C(=O)Nc3ccon3)c(=O)n12	inactive: > 76.9 µM
COC(=O)c1nnn(-c2nonc2N)c1CSc1ccccn1	inactive: > 76.9 µM
Cc1cc(N2CCCCC2)nc(SCc2ccc(C#N)cc2)n1	inactive: > 76.9 µM
CC(C)COC(=O)Cn1cnc2ccc(Br)cc2c1=O	inactive: > 76.9 µM
Cc1ccc(C)c2[nH]c(=O)c(CN(CCN3CCCC3)C(=O)Nc3ccc(F)cc3)cc12	inactive: > 76.9 µM
CCOc1ccc(Nc2nc(Cc3nnc(SCC(=O)NCC4CCCO4)n3C)cs2)cc1 (configuration not stated)	inactive: > 76.9 µM
C[C@H](C(=O)O)c1n[nH]c(=O)c2ccccc12	inactive: > 76.9 µM
CCSc1nnc(NC(=O)CSc2nnc(Cc3cccn3C)n2-c2ccc(F)cc2)s1	inactive: > 76.9 µM
O=C(O)c1ccc(S(=O)(=O)N2CCC(c3nc(-c4ccccc4Cl)no3)CC2)cc1	inactive: > 76.9 µM
CCC(=O)N1CCc2cc(S(=O)(=O)NCCC(=O)NC3CCCc4ccccc43)ccc21 (configuration not stated)	inactive: > 76.9 µM
O=C(CCS(=O)(=O)c1cccc2nonc12)N1CCN(c2ccc(F)cc2)CC1	inactive: > 76.9 µM
CCOC(=O)/C=C(\C)Sc1cc(=O)oc2ccccc12	inactive: > 76.9 µM
CCCCCNC(=O)c1ccc2c(=O)[nH]c3c(C(=O)NCC4CCCO4)sc(=S)n3c2c1 (configuration not stated)	inactive: > 76.9 µM
Cc1cccn2c(=O)c3cc(C#N)c(=NC(=O)c4ccncc4)n(CCCOC(C)C)c3nc12	inactive: > 76.9 µM
CCOC(=O)N1CCN(C(=O)C2CC(=O)N(c3ccc(OC)cc3)C2c2ccc(OC)cc2)CC1 (configuration not stated)	inactive: > 76.9 µM
COC(=O)c1sccc1NC(=O)c1ccncc1	inactive: > 76.9 µM
O=C(O)C1CCCCC1C(=O)Nc1nc(-c2cccs2)cs1 (configuration not stated)	inactive: > 76.9 µM
O=C(NS(=O)(=O)c1ccc(NC(=O)C2CCCO2)cc1)c1ccccc1 (configuration not stated)	inactive: > 76.9 µM
Nn1cnnc1SCC(=O)Nc1ccc(C2CCCCC2)cc1	inactive: > 76.9 µM

Compound	Potency
C=CCNC(=O)COc1ccc(S(=O)(=O)NC2CCCCC2)cc1	inactive: > 76.9 µM
COc1cccc(CNC(=O)C2CCN(S(=O)(=O)c3ccccc3)CC2)c1	inactive: > 76.9 µM
Cc1c(C)n(CC(O)CN2CCOCC2)c2ccccc12 (configuration not stated)	inactive: > 76.9 µM
Cc1ccc(NC(=O)c2cc(S(=O)(=O)N3CCC4(CC3)OCCO4)ccc2F)cc1	inactive: > 76.9 µM
CCOC(=O)c1ccc(NC(=O)CN(C)S(=O)(=O)c2ccc(OC)cc2)cc1	inactive: > 76.9 µM
CC(=O)Nc1c(O)[nH]c2ccccc12	inactive: > 76.9 µM
CCOc1ccc(OCC)c(NC(=O)C2CCCN(S(=O)(=O)c3cccs3)C2)c1 (configuration not stated)	inactive: > 76.9 µM
CCOc1ccc(S(=O)(=O)Nc2cccnc2)cc1	inactive: > 76.9 µM
CC(C)NC(=O)Cn1cc(C#N)c2cc(Br)ccc21	inactive: > 76.9 µM
COC(=O)c1c(C)oc2ccc(OC(=O)N3CCOCC3)cc12	inactive: > 76.9 µM
CCN(CC)c1nc(Nc2ccc(Cl)cc2)nc(OCC#N)n1	inactive: > 76.9 µM
Cc1ccc(-c2nc3ccccc3c(=O)n2CCCN2CCOCC2)cc1	inactive: > 76.9 µM
O=C(Nc1cccc(C(F)(F)F)c1)c1ccco1	inactive: > 76.9 µM
COc1ccccc1NC(=O)CSc1nnc(Cn2nnc(-c3ccccc3)n2)n1-c1ccccc1	inactive: > 76.9 µM
COc1ccc(C(=O)Oc2c(C)occc2=O)cc1OC	inactive: > 76.9 µM
CCOc1ccccc1C(=O)NCc1ccc2c(c1)OCO2	inactive: > 76.9 µM
CN(C)c1cccc(-c2nnc(SCCCC#N)o2)c1	inactive: > 76.9 µM
COc1ccccc1NC(=O)CSc1nnc(COc2ccc(Cl)cc2)n1Cc1ccco1	inactive
CCCCOc1ccc(-c2c(C#N)c(N)nc(SCC(N)=O)c2C#N)cc1	active: 8.78 µM
CSc1ccc(-c2c(C#N)c(N)nc3c2CCCC3)cc1	inactive: > 76.9 µM
CC(=O)Nc1coc2ccc(Br)cc12	inactive: > 76.9 µM
Cc1cc(Cl)cc(Br)c1OCCCCn1cncn1	inactive: > 76.9 µM
CC1CC(C)CN(CC(C)(C)NS(=O)(=O)c2ccccc2)C1 (configuration not stated)	inactive: > 76.9 µM
